# Laboratory results reported in PubChem BioAssay AID504832 (National Center for Advancing Translational Sciences (NCATS), 2011).
# The campaign covered roughly 310,000 compounds. About 18,000 (5.8%) were called active. This list was built around the results that the source calls inconclusive (neither active nor inactive); the mix of calls is not that of the screen. Calls follow the shape of the dose curve; as a rule, active = well fitted inhibition curve with a large enough effect; inconclusive = small, poorly fitted or top-dose-only effect, or another doubt; inactive = no such curve, though single readings can be large or run the other way. Potencies of inconclusive entries are left out as doubtful fits.
# Assay: Primary qHTS for delayed death inhibitors of the malarial parasite plastid, 48 hour incubation
# Conditions: P. falciparum luciferase growth in erythrocytes; series mostly up to 28.7 µM
# How it was run: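 In quantitative HTS format, infected erythrocytes bearing luciferase-reporter parasites were treated for a single generation at 37 C. Luminescence after adding detection reagent served as the growth measure.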
# % is scaled to controls: 0 for no effect and ±100 for the full control effect; potency is read from the fitted curve at half-maximal effect; tags tell the direction and shape of the fitted curve.
Compound,Potency,"activity change, negative = inhibition"
Cc1cc(NC(=O)c2cc(-c3cccs3)on2)no1,inactive,–
COc1cc(-c2c(C#N)c(N)nc(SCc3ccncc3)c2C#N)cc(OC)c1OC,active: 13.1 µM,–
COc1ccc(-c2nc(NC(=O)C3=NN(c4cccc(C)c4)C(=O)CC3)sc2C)cc1,"inconclusive [inhibitor, single point]",–
CN(C(=O)c1cncc(Br)c1)C1C2CC3CC(C2)CC1C3 (stereo unspecified),"inconclusive [inhibitor, partial curve, poor fit]",–
FC(F)(F)c1ccc(Nc2nnnc3ccccc23)cc1,active: 1.31 µM,–
Cc1ccccc1NC(=O)C(=Cc1ccc(C(=O)O)cc1)C(=O)Nc1ccccc1C,active: 3.7 µM,–
COc1ccc(N2Cc3ccc(OC)c(OC)c3C2=O)cc1,inactive,–
CCc1cc2c(-c3ccccc3)cc(=O)oc2c(CN2CCOCC2)c1O,"inconclusive [inhibitor, partial curve]",–
CCCOc1ccc(C2=CSC3=NCCN23)cc1[N+](=O)[O-],–,inactive: 6.65% [at 0.00184 µM]
CC(CCc1ccccc1)NC(=O)c1ccccc1C(=O)O (stereo unspecified),inactive,–
S=C(c1ccc2c(c1)OCO2)N1CCOCC1,"inconclusive [inhibitor, single point]",–
Cc1ccc(NC(=O)CN(C)CC(=O)Nc2ccccc2Oc2ccccc2)cc1,"inconclusive [inhibitor, single point]",–
O=C(O)c1ccc2c(c1Nc1ccccc1)C(=O)c1ccccc1C2=O,"inconclusive [inhibitor, single point]",–
COc1ccc(CN2CCSCC2)c(C)c1C,inactive,–
O=C(O)CCC(=O)Nc1ccc(S(=O)(=O)Nc2nccs2)cc1,inactive,–
COC(=O)c1ccc(CN2CCC(CO)(CCOc3ccccc3)CC2)cc1,inactive,–
CC(NCc1ccccc1OC1CCCC1)c1ccccc1 (stereo unspecified),"inconclusive [inhibitor, single point]",–
Cc1cc(C)cc(OCC(=O)N/N=C/c2ccco2)c1,inactive,–
CC1CCCC(C)N1CCCNC(=O)C1CCCN(c2ncnc3c2nc2n3CCCCC2)C1 (stereo unspecified),"inconclusive [inhibitor, partial curve, poor fit]",–
CCCCNC(=O)O[C@@H]1C[C@@H]2CCN3C(=O)CCC[C@H]([C@H]1CC)[C@H]23,inactive,–
CCCC(C(=O)NCCC(C)C)N(Cc1ccc(OC)cc1)C(=O)c1snc(C(N)=O)c1N (stereo unspecified),"inconclusive [inhibitor, single point]",–
COc1ccc(C(=O)Nc2nnc(Cc3ccc(OC)c(OC)c3)s2)c(OC)c1,active: 2.33 µM,–
Cc1ccc2oc(C(=O)NC3CCS(=O)(=O)C3)c(C)c2c1 (stereo unspecified),inactive,–

Compound,Potency,"activity change, negative = inhibition"
Cc1ccc2nc3c(c(Nc4cccc(O)c4)c2c1)CCC3,active: 5.22 µM,–
CC(C)c1ccc(C(C)NCCS(=O)(=O)c2ccc(Cl)cc2)cc1 (stereo unspecified),inactive,–
CCN(C(=O)CCc1nc(-c2ccc(OC)cc2)no1)c1cc(OC)ccc1OC,"inconclusive [inhibitor, partial curve, poor fit]",–
COc1ccc(C(=O)Nc2ccc(S(=O)(=O)N3CCN(C)CC3)cc2)cc1[N+](=O)[O-],"inconclusive [inhibitor, single point]",–
CC(=O)Nc1ccc(S(=O)(=O)NCc2ccc(C(=O)NC(C)c3ccccc3)cc2)cc1 (stereo unspecified),inactive,–
Cc1ccc(-n2nc3c(c2NC(=O)c2c(F)cccc2Cl)CS(=O)(=O)C3)cc1C,"inconclusive [inhibitor, partial curve, poor fit]",–
COCCN(C(=O)COC(=O)/C=C/c1cccc(OC)c1)c1c(N)n(CC(C)C)c(=O)[nH]c1=O,"inconclusive [inhibitor, single point]",–
Cc1ccccc1CN1CCNC(=O)C1CC(=O)NC1CCCCCCC1 (stereo unspecified),"inconclusive [inhibitor, single point]",–
COc1ccccc1N1CC(C(=O)OCC(=O)Nc2cc(C)on2)CC1=O (stereo unspecified),"inconclusive [inhibitor, partial curve, poor fit]",–
CCOC(=O)C1(S(=O)(=O)c2ccc(Cl)cc2)CCN(Cc2ccc(Cl)cc2)CC1,"inconclusive [inhibitor, partial curve, poor fit]",–
c1cc2nncn2nc1N1CCCC1,inactive,–
O=Cc1cnc(N2CCN(c3ccccc3)CC2)s1,inactive,–
Cc1cccn2c(=O)c3cc(S(=O)(=O)c4ccccc4)c(=N)n(Cc4ccc(F)cc4)c3nc12,"inconclusive [inhibitor, partial curve]",–
Cc1cc(C(=O)NC(Cc2ccccc2)C(=O)O)c(C)o1 (stereo unspecified),"inconclusive [inhibitor, partial curve]",–
Cc1ccc(/C=C/C(=O)O)cc1S(=O)(=O)N1CCc2ccccc2C1,–,inactive: -32.5% [at 1.15 µM]
CC(=O)c1c(C)[nH]c(C(=O)NCc2ccccc2Cl)c1C,"inconclusive [inhibitor, partial curve]",–
Cc1c(C(=O)N2CCN(c3ccccc3F)CC2)sc2ncn(CC(=O)N3CCOCC3)c(=O)c12,"inconclusive [inhibitor, partial curve, poor fit]",–
CC1(C)Cc2c(sc3[nH]c(=S)n(Cc4ccco4)c(=O)c23)CO1,inactive,–
Cc1cc(C)cc(-n2nnn(C3C/C(=N/NC(N)=S)C4OCC3O4)c2=S)c1 (stereo unspecified),"inconclusive [inhibitor, single point]",–
CS(=O)(=O)N(CC(O)CON=C1c2ccccc2-c2ccccc21)c1ccc(F)cc1 (stereo unspecified),"inconclusive [inhibitor, single point]",–
Cc1cccc(C)c1NC(=O)CN1C(=O)C2CC=CCC2C1=O (stereo unspecified),"inconclusive [inhibitor, single point]",–
N#Cc1ccc(C(=O)CSc2nnc(-c3ccc(C(F)(F)F)cn3)s2)cc1,"inconclusive [inhibitor, single point]",–
CCCCn1c(N)c(N(CC(C)C)C(=O)C2CC(=O)N(c3ccc(CC)cc3)C2)c(=O)[nH]c1=O (stereo unspecified),"inconclusive [inhibitor, single point]",–
